We go through 6 molecules from publication PMC12136788.

The list shows a part of the results.

B1: chr7:56126341:56126342:+_ENSG00000146731_ENST00000540286|hu_mus|hu_hu_hu_mus_True|38_108 (ssRNA)
RNA: GGGAGUUCUACAGUCCGACGAUCCAUAUUUCUCCUUUUGGCUCUGCGCAGAGCUACGAUCCCUUCUUUCGCAAGGGCAUCUAAGGAAAAGGGGUCAAUUCCCUUUUGAUUAAUAACGACAAAUCCUUUAUCUGAGUCACCACACAACAGAGGAUUGAGCAUCA
B2: 98693666_98693786_2379_CDS_ENSMUSG00000048154_ENSMUST00000023741|mouse|control|control (ssRNA)
RNA: GGGAGUUCUACAGUCCGACGAUCCAGCGGCAGCUCCUCAGGCUGGGGACAGAGUCGGGGCUCCUCAGGCUGAGGAGACAAGUAUGGUUCCUCGGGCUGAGGGCAGAGUCUCAGCUCCUCAGGCAGUGGCGACAGCGGUGACUCCAACAGAGGAUUGAGCAUCA
B3: chr7:65705844:65705845:+_ENSG00000169902_ENST00000304842|hu_mus|hu_hu_hu_mus_False|28_28 (ssRNA)
RNA: GGGAGUUCUACAGUCCGACGAUCAAACGGAUCUUUGUUACAUAAAUAAGGUGCCGGCUCCCCAUGUUUAACAAUGACCUCCAGAAGGAAGGCUUGCAUGGCAGAAUCCAGCACUUCAUCUGUGACACCCGCCUCAUCCAAGCGCAACAGAGGAUUGAGCAUCA
B4: chr19:12856456:12856457:+_ENSG00000198356_ENST00000357332|hu_hu|FALSE|FALSE (ssRNA)
RNA: GGGAGUUCUACAGUCCGACGAUCCACGAUGGUGGGGAAGUUGAGCAGCCUCAGGGUGUGGCCCGUGGGUGCCGUGUCAAAUACCACCACCGAGAAGUUCAUGCCCUUCACCAGCCUCAUGACCUCGGCAUAGCUCAUGGCCUCCAACAGAGGAUUGAGCAUCA
B5: chr7:143002065:143002066:+_ENSG00000106144_ENST00000310447|hu_mus|FALSE|FALSE (ssRNA)
RNA: GGGAGUUCUACAGUCCGACGAUCCAGAGUACUACAGUACUCAGACAUCUCCUUGCAUCGGUGGAAUUCUGUGCCAGGGGCAUAGCCUUCACGCUCCUUGAUAAGGGCAUUCACCUUAACAAGCAUGUCGGCCACGUGCAUGUCCAACAGAGGAUUGAGCAUCA
B6: chr7:151048522:151048523:+_ENSG00000013374_ENST00000566856|hu_mus|hu_hu_hu_mus_True|68_108 (ssRNA)
RNA: GGGAGUUCUACAGUCCGACGAUCCUGCUUCUUAUUUAUUACGAUCUUGAUGUAAUUUUCUUGAAAUCCAAAGGUUUCAGCUAUUUGACACCUCAGGUCUCUACCAGUGACAUGCAAGCGGGUCUCCAACAAGCUUUUCUUAUCCAACAGAGGAUUGAGCAUCA

For this assay, the target named is T1, UNK ZnF1-3 (human, UniProt Q9C0B0 31-174).
T1 sequence: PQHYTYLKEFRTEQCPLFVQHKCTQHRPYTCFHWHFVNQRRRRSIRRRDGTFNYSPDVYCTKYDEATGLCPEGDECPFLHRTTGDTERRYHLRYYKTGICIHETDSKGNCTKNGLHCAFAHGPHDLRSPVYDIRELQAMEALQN
Kind of assay: nsRBNS (natural sequence RNA bind-n-seq); RBNS binding buffer (assumed for nsRBNS): 25 mM Tris pH 7.5, 150 mM KCl, 3 mM MgCl2, 0.01% Triton X-100, 500 ug/ml BSA, 20 U/ml SUPERase-In, 4 C; UNK is unkempt and MSI1 is Musashi-1; names of the RNAs are library labels; protein concentration not given here; high values mean tight binding.
For the molecule B1, the binding signal was determined as 0.881 enrichment R.

Regarding B2, the binding signal came out at 0.92 enrichment R.

B3: the binding signal turned out to be 0.278 enrichment R.

On to B4, for which the binding signal was 0.844 enrichment R.

B5: the binding signal amounted to 0.434 enrichment R.

In turn, B6 yielded a binding signal of 0.754 enrichment R.
